# Results reported in the supplement of paper PMC8728848.
# Some of the results follow.
# Columns and labels:
# Assay in all cases: glycan array binding signal (z-score within array); higher = stronger binding
# Conditions in all cases: glycan notation: IUPAC condensed, linker removed; mutation: R82H, R255H
# [1] = target: Gal(b1-3)GlcNAc(b1-2)Man(a1-3)[Gal(b1-3)GlcNAc(b1-2)Man(a1-6)]Man(b1-4)GlcNAc(b1-4)GlcNAc
# Outline: (§1)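 Negative Z-scores can be read as non-binding. The Z-score is calculated within each array and then averaged across arrays of one protein sequence at different concentrations or buffers and across linkers. Arrays, 3228 in all, were curated from the Consortium for Functional Glycomics database and kept only where the protein sequence was available.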
# [2] = target: Gal(b1-3)GlcNAc(b1-2)Man(a1-3)[Gal(b1-3)GlcNAc(b1-2)Man(a1-6)]Man(b1-4)GlcNAc(b1-4)[Fuc(a1-6)]GlcNAc
# Outline: as §1
# [3] = target: Gal(b1-3)GlcNAc(b1-2)Man(a1-3)[GlcNAc(b1-4)][Gal(b1-3)GlcNAc(b1-2)Man(a1-6)]Man(b1-4)GlcNAc(b1-4)GlcNAc
# Outline: as §1
# [4] = target: Gal(b1-3)GlcNAc(b1-2)[Gal(b1-3)GlcNAc(b1-6)]Man(a1-6)[Gal(b1-3)GlcNAc(b1-2)Man(a1-3)]Man(b1-4)GlcNAc(b1-4)GlcNAc
# Outline: as §1
# [5] = target: Gal(b1-3)GlcNAc(b1-3)Gal(b1-3)GlcNAc
# Outline: as §1
# [6] = target: Gal(b1-3)GlcNAc(b1-3)Gal(b1-4)Glc
# Outline: as §1
# [7] = target: Gal(b1-3)GlcNAc(b1-3)Gal(b1-4)GlcNAc
# Outline: as §1
# [8] = target: Gal(b1-3)GlcNAc(b1-3)Gal(b1-4)GlcNAc(b1-2)Man(a1-3)[Gal(b1-3)GlcNAc(b1-3)Gal(b1-4)GlcNAc(b1-2)Man(a1-6)]Man(b1-4)GlcNAc(b1-4)GlcNAc
# Outline: as §1
# [9] = target: Gal(b1-3)GlcNAc(b1-3)Gal(b1-4)GlcNAc(b1-2)[Gal(b1-3)GlcNAc(b1-3)Gal(b1-4)GlcNAc(b1-6)]Man(a1-6)[Gal(b1-3)GlcNAc(b1-3)Gal(b1-4)GlcNAc(b1-2)Man(a1-3)]Man(b1-4)GlcNAc(b1-4)[Fuc(a1-6)]GlcNAc
# Outline: as §1
# [10] = target: Gal(b1-3)GlcNAc(b1-3)Gal(b1-4)GlcNAc(b1-3)Gal(b1-4)GlcNAc(b1-2)[Gal(b1-3)GlcNAc(b1-3)Gal(b1-4)GlcNAc(b1-3)Gal(b1-4)GlcNAc(b1-6)]Man(a1-6)[Gal(b1-3)GlcNAc(b1-3)Gal(b1-4)GlcNAc(b1-3)Gal(b1-4)GlcNAc(b1-2)Man(a1-3)]Man(b1-4)GlcNAc(b1-4)[Fuc(a1-6)]GlcNAc
# Outline: as §1
# [11] = target: Gal(b1-3)GlcNAc(b1-3)Gal(b1-4)GlcNAc(b1-6)[Gal(b1-3)GlcNAc(b1-3)]Gal(b1-4)Glc
# Outline: as §1
# [12] = target: Gal(b1-3)GlcNAc(b1-3)Gal(b1-4)[Fuc(a1-3)]GlcNAc
# Outline: as §1
# [13] = target: Gal(b1-3)GlcNAc(b1-3)Gal(b1-4)[Fuc(a1-3)]GlcNAc(b1-6)[Gal(b1-3)GlcNAc(b1-3)]Gal(b1-4)Glc
# Outline: as §1
# [14] = target: Gal(b1-3)GlcNAc(b1-3)GalNAc
# Outline: as §1
# [15] = target: Gal(b1-3)GlcNAc(b1-6)Gal(b1-4)GlcNAc
# Outline: as §1
# [16] = target: Gal(b1-3)GlcNAc(b1-6)GalNAc
# Outline: as §1
# [17] = target: Gal(b1-3)GlcNAc(b1-6)[Gal(b1-3)]GalNAc
# Outline: as §1
# Gal(b1-3)GlcNAc6S = target: Gal(b1-3)GlcNAc6S
# Outline: as §1
# [18] = target: Gal(b1-3)[Fuc(a1-4)]GlcNAc
# Outline: as §1
# [19] = target: Gal(b1-3)[Fuc(a1-4)]GlcNAc(b1-2)Man
# Outline: as §1
# [20] = target: Gal(b1-3)[Fuc(a1-4)]GlcNAc(b1-2)Man(a1-3)[Gal(b1-3)[Fuc(a1-4)]GlcNAc(b1-2)Man(a1-6)]Man(b1-4)GlcNAc(b1-4)[Fuc(a1-6)]GlcNAc
# Outline: as §1
# [21] = target: Gal(b1-3)[Fuc(a1-4)]GlcNAc(b1-3)Gal(b1-3)[Fuc(a1-4)]GlcNAc
# Outline: as §1
# [22] = target: Gal(b1-3)[Fuc(a1-4)]GlcNAc(b1-3)Gal(b1-4)[Fuc(a1-3)]GlcNAc
# Outline: as §1
# [23] = target: Gal(b1-3)[Fuc(a1-4)]GlcNAc(b1-6)GalNAc
# Outline: as §1
# [24] = target: Gal(b1-3)[GlcNAc(b1-6)]GalNAc
# Outline: as §1
# [25] = target: Gal(b1-3)[Neu5Ac(a2-6)]GalNAc
# Outline: as §1
# [26] = target: Gal(b1-3)[Neu5Ac(a2-6)]GlcNAc(b1-4)Gal(b1-4)Glc
# Outline: as §1
# [27] = target: Gal(b1-3)[Neu5Ac(b2-6)]GalNAc
# Outline: as §1
# Gal(b1-4)Gal = target: Gal(b1-4)Gal
# Outline: as §1
# [28] = target: Gal(b1-4)GalNAc(a1-3)[Fuc(a1-2)]Gal(b1-4)GlcNAc
# Outline: as §1
# [29] = target: Gal(b1-4)GalNAc(b1-3)[Fuc(a1-2)]Gal(b1-4)GlcNAc
# Outline: as §1
# Gal(b1-4)Glc = target: Gal(b1-4)Glc
# Outline: as §1
# Gal(b1-4)Glc6S = target: Gal(b1-4)Glc6S
# Outline: as §1
# Gal(b1-4)GlcNAc = target: Gal(b1-4)GlcNAc
# Outline: as §1
# [30] = target: Gal(b1-4)GlcNAc(a1-6)Gal(b1-4)GlcNAc
# Outline: as §1
# Gal(b1-4)GlcNAc(b1-2)Man = target: Gal(b1-4)GlcNAc(b1-2)Man
# Outline: as §1
# [31] = target: Gal(b1-4)GlcNAc(b1-2)Man(a1-3)Man(b1-4)GlcNAc(b1-4)GlcNAc
# Outline: as §1
binder,measurement,setting,value
"Gal 8 (Mus musculus), Q9JL15 (protein) MGGSHHHHHHGMASMLSLNNLQNIIYNPIIPYVGTITEQLKPGSLIVIRGHVPKDSERFQVDFQLGNSLKPRADVAFHFNPHFKRSSCIVCNTLTQEKWGWEEITYDMPFRKEKSFEIVFMVLKNKFQVAVNGRHVLLYAHRISPEQIDTVGIYGKVNIHSIGFRFSSASALPHTLGDLQSMETSALGLTQINRENIQKPGKLQLSLPFEARLNASMGPGRTVVIKGEVNTNARSFNVDLVAGKTRDIALHLNPHLNVKAFVRNSFLQDAWGEEERNITCFPFSSGMYFEMIIYCDVREFKVAINGVHSLEYKHRFKDLSSIDTLSVDGDIRLLDVRSW",glycan array binding signal (z-score),[1],-0.258
same,glycan array binding signal (z-score),[2],-0.11
same,glycan array binding signal (z-score),[3],-0.27
same,glycan array binding signal (z-score),[4],-0.332
same,glycan array binding signal (z-score),[5],-0.254
same,glycan array binding signal (z-score),[6],-0.263
same,glycan array binding signal (z-score),[7],-0.268
same,glycan array binding signal (z-score),[8],-0.237
same,glycan array binding signal (z-score),[9],-0.036
same,glycan array binding signal (z-score),[10],-0.109
same,glycan array binding signal (z-score),[11],-0.283
same,glycan array binding signal (z-score),[12],-0.26
same,glycan array binding signal (z-score),[13],-0.278
same,glycan array binding signal (z-score),[14],-0.305
same,glycan array binding signal (z-score),[15],-0.271
same,glycan array binding signal (z-score),[16],-0.274
same,glycan array binding signal (z-score),[17],-0.218
same,glycan array binding signal (z-score),Gal(b1-3)GlcNAc6S,-0.273
same,glycan array binding signal (z-score),[18],-0.027
same,glycan array binding signal (z-score),[19],-0.226
same,glycan array binding signal (z-score),[20],-0.256
same,glycan array binding signal (z-score),[21],-0.242
same,glycan array binding signal (z-score),[22],-0.277
same,glycan array binding signal (z-score),[23],-0.243
same,glycan array binding signal (z-score),[24],-0.245
same,glycan array binding signal (z-score),[25],-0.248
same,glycan array binding signal (z-score),[26],-0.272
same,glycan array binding signal (z-score),[27],-0.258
same,glycan array binding signal (z-score),Gal(b1-4)Gal,-0.238
same,glycan array binding signal (z-score),[28],-0.274
same,glycan array binding signal (z-score),[29],-0.275
same,glycan array binding signal (z-score),Gal(b1-4)Glc,-0.231
same,glycan array binding signal (z-score),Gal(b1-4)Glc6S,-0.26
same,glycan array binding signal (z-score),Gal(b1-4)GlcNAc,-0.237
same,glycan array binding signal (z-score),[30],-0.278
same,glycan array binding signal (z-score),Gal(b1-4)GlcNAc(b1-2)Man,-0.197
same,glycan array binding signal (z-score),[31],-0.256
